# Among all 310,000 compounds or so, about 14,000 (4.5%) showed an effect of 50% or more. The effect is printed as a negative number. This is one part of the list.
# Target: human ether-à-go-go-related gene (hERG) potassium channel (human, UniProt Q12809)
# Test: primary screen, population patch clamp on CHO cells stably expressing hERG
# 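Further: peak tail current of the secondary pulse compared with the same well before compound.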
# Chain of human ether-à-go-go-related gene (hERG) potassium channel (Q12809 whole entry, looked up): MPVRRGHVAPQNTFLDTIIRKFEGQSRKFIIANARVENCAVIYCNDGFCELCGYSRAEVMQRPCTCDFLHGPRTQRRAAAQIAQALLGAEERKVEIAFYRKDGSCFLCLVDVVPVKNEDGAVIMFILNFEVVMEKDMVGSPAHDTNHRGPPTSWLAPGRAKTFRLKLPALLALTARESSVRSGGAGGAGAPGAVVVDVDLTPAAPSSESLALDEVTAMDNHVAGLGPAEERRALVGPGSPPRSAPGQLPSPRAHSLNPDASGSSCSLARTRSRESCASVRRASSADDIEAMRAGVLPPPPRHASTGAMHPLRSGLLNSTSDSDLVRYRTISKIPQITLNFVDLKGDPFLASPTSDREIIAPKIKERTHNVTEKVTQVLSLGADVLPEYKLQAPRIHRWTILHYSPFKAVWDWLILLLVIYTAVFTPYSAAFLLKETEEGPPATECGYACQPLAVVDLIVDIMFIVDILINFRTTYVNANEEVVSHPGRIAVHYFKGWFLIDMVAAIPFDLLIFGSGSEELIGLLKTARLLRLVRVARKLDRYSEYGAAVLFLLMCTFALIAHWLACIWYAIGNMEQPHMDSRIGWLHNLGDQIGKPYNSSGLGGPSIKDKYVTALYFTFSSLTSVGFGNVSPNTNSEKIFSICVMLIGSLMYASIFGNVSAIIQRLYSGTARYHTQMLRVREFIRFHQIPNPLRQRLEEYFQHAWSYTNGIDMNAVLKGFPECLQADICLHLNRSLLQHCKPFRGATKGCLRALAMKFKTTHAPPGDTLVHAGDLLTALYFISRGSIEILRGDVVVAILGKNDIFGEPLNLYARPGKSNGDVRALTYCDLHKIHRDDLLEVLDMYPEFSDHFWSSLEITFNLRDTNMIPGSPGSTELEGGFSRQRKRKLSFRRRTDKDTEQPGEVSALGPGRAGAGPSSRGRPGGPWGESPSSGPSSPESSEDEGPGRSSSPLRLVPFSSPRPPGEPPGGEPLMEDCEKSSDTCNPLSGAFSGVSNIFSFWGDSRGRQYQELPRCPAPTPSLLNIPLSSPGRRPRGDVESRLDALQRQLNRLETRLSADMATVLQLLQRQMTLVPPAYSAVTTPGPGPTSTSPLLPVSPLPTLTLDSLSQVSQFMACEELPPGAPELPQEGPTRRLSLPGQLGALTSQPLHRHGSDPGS
row,SMILES,"hERG current change (%, negative = inhibition) at 10uM [%]"
1,COCc1nc(-c2cc(OC)c(OC)c(OC)c2)no1,-16.3
2,O=C(/C=C/c1ccc(Cl)cc1)NCCCN1CCOCC1,-71
3,O=C(Nc1ccc(N2CCOCC2)c(F)c1)c1cccs1,1.9
4,O=C1Nc2ccccc2C1=Nc1ccc(S(=O)(=O)Nc2nccs2)cc1,26.5
5,CCCn1c(=O)c2ccccc2n2c(SCCOc3ccc(Cl)cc3)nnc12,-18.1
6,Cc1ccc(CNC(=O)CCCc2cn(C)c3ccccc23)cc1,19.8
7,CN1[C@H]2CC[C@@H]1C(C(=O)N1CCOCC1)=C(O)C2,16.7
8,O=C(N/N=C/c1cccc2ccccc12)c1ccncc1,-15.5
9,COc1cc([N+](=O)[O-])cc(/C=N/NC(=O)CSc2ccccn2)c1O,13.6
10,CC1(C)Cc2c(cnn2-c2ccc(F)cc2)C(NC(=O)CN2CCCCC2=O)C1 (stereo not drawn),-4.5
11,O=C(CSc1nnc(Cc2cccs2)n1C1CCCCC1)N1CCN(C(=O)c2ccco2)CC1,-14.9
12,Cc1nc2c(-c3ccccc3)c(C)[nH]n2c(=O)c1Cl,-8.17
13,O=C(CCC(=O)NNC(=S)Nc1ccccc1)NCc1ccccc1,29.4
14,Nc1cc(N2CCCC2)c(Cl)cc1[N+](=O)[O-],16.8
15,Cc1ccc(NC(=O)c2noc(C(C)C)c2[N+](=O)[O-])cc1,8.4
16,CN(CC(=O)Nc1ccc(F)cc1)c1ccc(S(=O)(=O)N2CCCCC2)cc1[N+](=O)[O-],-17.8
17,CCc1ccc(NC(=O)N(Cc2ccco2)C(C)c2cccs2)cc1 (stereo not drawn),10.9
18,OCCN(Cc1ccccc1)Cc1cccc(C(F)(F)F)c1,10.2
19,CCOC(=O)C1CCN(c2cc(C)nc3cc(-c4cccc(F)c4)nn23)CC1,-5.74
20,O=C(NCc1ccccc1)c1ncn(Cc2ccccc2)c1C(=O)NCc1ccccc1,17.3
21,CC(=O)Nc1ccc2nc3ccccc3nc2c1,8.1
22,Cc1ccc(S(=O)(=O)Nc2cccc(-n3cnnn3)c2)cc1C,-1.36
23,COCCCNC(=O)Cn1cnc2sc(C)c(S(=O)(=O)N3CC(C)CC(C)C3)c2c1=O (stereo not drawn),-0.637

row,SMILES,"hERG current change (%, negative = inhibition) at 10uM [%]"
1,NC(=S)N=Nc1c(O)n(Cc2ccccc2)c2ccccc12,-3.89
2,CCOC(=O)N1CCN(S(=O)(=O)CCNC(=O)c2cccc(OC)c2)CC1,2.45
3,CCOC(=O)c1cnc(=O)[nH]c1C.Cl,-2.23
4,COc1ccc(N2C(=O)CSC23C(=O)Nc2ccccc23)cc1OC (stereo not drawn),3.26
5,CCOC(=O)C(Cc1ccc(OC)c([N+](=O)[O-])c1)NC(=O)CCC(=O)Nc1ccc(OC)cc1 (stereo not drawn),1.35
6,COc1ccccc1NC(=O)CN1C(=O)NC2(CCCCCCC2)C1=O,1.08
7,Cn1c(O)c(C(=NCCc2c[nH]c3ccccc23)c2ccccc2)c(=O)n(C)c1=O,-8.35
8,Cc1ccc(C(c2nnnn2CCC(C)C)N2CCN(C)CC2)cc1.Cl (stereo not drawn),-30.4
9,O=C(O)/C=C/C(=O)NCc1ccccc1,6.82
10,Cc1cccc(OCC(=O)N/N=C/c2ccc3c(c2)OCO3)c1,-2.46
11,N#Cc1cnc(NOCc2ccc(Cl)cc2)nc1,-8.5
12,COc1ccccc1N(CC(=O)NCc1ccccc1)C(=O)CCC(=O)Nc1cc(C)ccn1,-9.35
13,Cc1ccc(C(=O)NC(C)c2ccc(S(N)(=O)=O)cc2)s1 (stereo not drawn),9.96
14,Cc1ccc(C)c(NC(=S)NCCc2c[nH]c3ccccc23)c1,-15.5
15,O=[N+]([O-])c1cc(/C=N/O)ccc1Oc1ccccc1Cl,-16
16,O=C1CCCN=C(Nc2ccc(F)c(Cl)c2)S1,-18.8
17,CC(=O)c1ccc(NC(=O)COC(=O)c2ccccc2Nc2ccccc2)cc1,14.9
18,CCCN1CCC(=O)N(CCOc2ccccc2)CC1,-6.3
19,CCn1c(CNc2ccc(C)cc2)nnc1SCC(=O)NCc1ccccc1,-10.6
20,O=C(CN1CCN(C(=O)c2ccco2)CC1)Nc1cccc(S(=O)(=O)N2CCCC2)c1,-16.2
21,Cc1cccc2sc(NC(=O)C3CCCO3)nc12 (stereo not drawn),-8.63
22,Cn1c(CN2CCCCC2)nc2cc(NC(=O)c3ccc(Cl)cc3)ccc21,-59.8
23,CCn1c(CC(=O)Nc2ccc(OC)cc2)nnc1SCC(=O)N1CCOCC1,18.4

row,SMILES,"hERG current change (%, negative = inhibition) at 10uM [%]"
1,Cc1ccc(NC2CCCN(C(=O)c3ccccc3N3CCOCC3)C2)cc1C (stereo not drawn),-0.641
2,Cc1cc(S(=O)(=O)NC2CCCCC2)ccc1OCC(=O)NCc1cccnc1,-23.2
3,Cc1cc(NC(=O)CN2C(=O)NC3(CCC(C)CC3)C2=O)no1 (stereo not drawn),30.4
4,Cc1ccc(NC(=O)CSc2n[nH]c(C)c2[N+](=O)[O-])cc1C,4.77
5,CCC(=O)c1ccc(OCC(=O)N2CCN(C(=O)c3ccccc3)CC2)cc1,-37.8
6,O=C(Nc1ccccc1C(=O)NCc1ccccc1)C1=CSCCO1,12.2
7,CCOC(=O)CSc1ccc(C(=O)N2CCC3(CC2)OCCO3)cc1[N+](=O)[O-],20.7
8,CCCCN1C[C@H](Cc2ccccc2)[C@@H](CC(=O)Nc2ccccc2)C1=O,-25.4
9,COC(=O)C1=C(C)NC(C)=C(C(=O)OC)C1C(=O)OCCN1C(=O)c2ccccc2C1=O,-17.3
10,COc1cc2c(cc1OC)CN(C(=O)c1nn(Cc3ccccc3)c(=O)c3ccccc13)CC2,-44.7
11,Nc1ccc(C23CC4CC(CC(CO)(C4)C2)C3)cc1,15.7
12,CC(=O)Nc1nc2cc(N)ccc2s1,1.94
13,Cc1ccc(C(=O)OCC(=O)N2C(C)CCCC2C)cc1S(=O)(=O)N1CCCCC1 (stereo not drawn),-27
14,CCOc1ccc(C(=O)NNC(=O)C2CC(=O)N(c3ccc(C)cc3)C2)cc1 (stereo not drawn),-2.38
15,Cc1ccc(N2Cc3ccccc3C2=O)cc1,6.49
16,O=S(=O)(Cc1cnc(Cl)s1)c1ccccc1,6.7
17,Cc1cc(Br)ccc1NS(=O)(=O)c1c(C)[nH]c(=O)[nH]c1=O,11.6
18,O=C(COc1ccccc1)N1CCNC1=O,-0.563
19,CCn1c(Oc2ccccc2)nc2c1c(=O)n(C)c(=O)n2C,2.72
20,COc1ccc(C(=O)NNC(=O)Cc2nc3nc(C)cc(C)n3n2)cc1,6.94
21,COc1ccc(-c2c(C)n([O-])c3c([n+]2=O)CCC3)cc1OC,2.8
22,Cc1ccc(-c2nn(-c3ccccn3)c(=O)c3ccccc23)cc1C,-30.3
23,O=C(c1ccc([N+](=O)[O-])cc1)N1CCN=C1SCc1ccccc1,-72.2

row,SMILES,"hERG current change (%, negative = inhibition) at 10uM [%]"
1,Clc1ccc(OCCn2ccnc2)c(Br)c1,-5.07
2,Cc1cc(C)nc(NC(=O)c2cccc([N+](=O)[O-])c2C)n1,-8.72
3,Cc1ccc(-c2csc(NC(=S)NC(=O)c3cc4ccccc4o3)n2)cc1,7.09
4,COc1ccc(S(=O)(=O)N2CCOCC2)cc1C(=O)Nc1nc2ccccc2s1,-5.62
5,COc1ccc(Cl)cc1NC(=O)N1CCN(c2ccccc2OC)CC1,-13.4
6,CC(C)(C)CC(C)(C)c1ccc(OCC(=O)N/N=C/c2ccc(S(=O)(=O)[O-])o2)cc1,-2.86
7,COc1ccc(C(c2nnnn2Cc2cccs2)N2CCN(c3ccc(F)cc3)CC2)cc1OC (stereo not drawn),-69.4
8,CC(C)c1ccc(NC(=O)CC2Oc3ccccc3NC2=O)cc1 (stereo not drawn),7.14
9,CN(C)c1cc(-c2ccc(F)cc2)oc(=O)c1Cl,-16.8
10,COc1cc(/C=N/N2CCN(c3ccccc3)CC2)cc(OC)c1OC(C)=O,-39.4
11,CC1CCCCN1S(=O)(=O)c1cccc(S(=O)(=O)N2CCOCC2)c1 (stereo not drawn),-18.2
12,COc1ccccc1CNC(=O)COc1ccc2c(c1)CCC2,-1.2
13,Cc1ccc(SCC(=O)OCC(=O)NCc2ccco2)cc1,-2.28
14,Cc1n[nH]c(C)c1CCCCOc1ccccc1,-21.8
15,COc1cc2ncnc(NCc3ccccc3Cl)c2cc1OC,10.9
16,c1ccc2c(c1)[nH]c1c(N3CCC4(CC3)OCCO4)ncnc12,-14.3
17,COc1cc(OC)nc(NC(=O)COC(=O)c2cccc(Cl)c2)n1,21.2
18,CCS(=O)(=O)N1CCC(NC(C)=O)(c2ccccc2)CC1,4.18
19,CC(C)Sc1nnc([C@H](Cc2ccccc2)NC(=O)OC(C)(C)C)o1,3.9
20,Cn1c(-c2cnn(-c3ccccc3)c2-n2cccc2)n[nH]c1=S,9.86
21,CC1CC(C)CN(CCCNC(=O)c2nn(C)c3c2CS(=O)(=O)c2ccccc2-3)C1 (stereo not drawn),-64.2
